# Assay results published in PubChem BioAssay AID504332 (National Center for Advancing Translational Sciences (NCATS), 2011).
# The campaign covered roughly 350,000 compounds. About 31,000 (8.9%) were called active. Inconclusive means that the source gave no clear call. Such entries were picked first, then a sample of the others. Calls follow the shape of the dose curve; as a rule, active = well fitted inhibition curve with a large enough effect; inconclusive = small, poorly fitted or top-dose-only effect; inactive = no such curve, though single readings can be large or run the other way. Potencies beside an inconclusive call are fits to weak or partial responses and may not hold up.
# Target: Histone-lysine N-methyltransferase EHMT2 (Homo sapiens) (UniProt Q96KQ7)
# Assay: qHTS Assay for Inhibitors of Histone Lysine Methyltransferase G9a; also: nearly all actives have a fitted effect of over 75% in size
# Settings: G9a H3K9 monomethylation, AlphaScreen, 2 h; activity, negative = inhibition: at 59 µM (top of the series) unless noted
# Summary of the method: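 G9a (20 nM) preincubated 15 min RT with compounds, then 500 nM biotinylated H3K9 peptide and 20 uM SAM added; 2 h RT reaction. Monomethyl-H3K9 product detected by AlphaScreen with anti-H3K9me1 antibody, streptavidin donor and anti-rabbit IgG acceptor beads.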
# % is scaled to controls: 0 for no effect and ±100 for the full control effect; potency is read from the fitted curve at half-maximal effect; tags tell the direction and shape of the fitted curve.
# UniProt Q96KQ7, sequence (Q96KQ7 whole entry, looked up): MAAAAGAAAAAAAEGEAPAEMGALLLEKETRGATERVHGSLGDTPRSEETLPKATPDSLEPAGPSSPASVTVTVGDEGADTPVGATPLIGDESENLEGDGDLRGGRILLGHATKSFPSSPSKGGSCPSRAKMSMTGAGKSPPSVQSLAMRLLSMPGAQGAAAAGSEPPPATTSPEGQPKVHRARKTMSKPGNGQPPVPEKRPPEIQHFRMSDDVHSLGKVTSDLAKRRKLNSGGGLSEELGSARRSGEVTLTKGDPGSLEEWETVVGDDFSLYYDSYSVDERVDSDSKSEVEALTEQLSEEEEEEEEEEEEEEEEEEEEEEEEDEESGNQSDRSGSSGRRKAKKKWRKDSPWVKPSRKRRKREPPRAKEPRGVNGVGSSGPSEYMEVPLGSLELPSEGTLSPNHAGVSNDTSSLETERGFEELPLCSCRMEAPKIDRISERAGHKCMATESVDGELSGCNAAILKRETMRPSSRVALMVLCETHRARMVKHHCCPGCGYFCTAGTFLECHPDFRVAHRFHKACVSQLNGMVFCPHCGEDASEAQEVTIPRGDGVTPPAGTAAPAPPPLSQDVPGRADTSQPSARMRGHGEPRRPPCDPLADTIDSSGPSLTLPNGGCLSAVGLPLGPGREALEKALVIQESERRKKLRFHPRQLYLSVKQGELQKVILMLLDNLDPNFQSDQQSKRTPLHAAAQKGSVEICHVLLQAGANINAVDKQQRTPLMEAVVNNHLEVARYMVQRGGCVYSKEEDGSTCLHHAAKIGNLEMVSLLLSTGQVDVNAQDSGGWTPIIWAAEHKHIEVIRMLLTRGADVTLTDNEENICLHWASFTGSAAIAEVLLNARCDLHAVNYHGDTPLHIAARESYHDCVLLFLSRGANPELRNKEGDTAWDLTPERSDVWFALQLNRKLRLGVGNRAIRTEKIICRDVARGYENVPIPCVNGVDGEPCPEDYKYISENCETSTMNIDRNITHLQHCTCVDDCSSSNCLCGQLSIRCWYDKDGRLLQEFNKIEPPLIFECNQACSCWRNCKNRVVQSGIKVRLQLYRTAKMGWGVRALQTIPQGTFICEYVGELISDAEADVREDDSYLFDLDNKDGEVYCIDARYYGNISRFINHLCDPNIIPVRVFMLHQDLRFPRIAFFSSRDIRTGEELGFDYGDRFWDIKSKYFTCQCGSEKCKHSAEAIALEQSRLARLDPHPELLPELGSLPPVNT
Structure (SMILES),"activity, negative = inhibition",Potency
CC(=O)Nc1ccc(S(=O)(=O)Nc2nc3c(s2)CCCC3)cc1,inconclusive: -81.2% [inhibitor],–
CC(=O)/C(N=Nc1ccc(C(=O)O)cc1[N+](=O)[O-])=C(\C)O,inconclusive: -58.6% [inhibitor],–
COc1cc(CC(C#N)(CO)c2nc3ccccc3[nH]2)ccc1OC(F)F (stereo unspecified),–,inactive
Cc1cc(OC(=O)C(C)(C)C)c([N+](=O)[O-])c(=O)[nH]1,–,active: 1.41 µM
CC(CCO)Nc1nc2c([nH]1)c(=O)n(C)c(=O)n2C (stereo unspecified),–,inactive
Cc1c(Br)cc(C(=O)O)c(C)c1C,–,inactive
N#CC1=C(N)Oc2n[nH]c(-c3cccs3)c2C1c1cccnc1 (stereo unspecified),–,"inconclusive: 56.2 µM [inhibitor, partial curve, poor fit]"
CCN(CC(=O)NCc1ccc(F)cc1)C(=O)/C=C/c1ccco1,–,"inconclusive: 39.8 µM [inhibitor, partial curve, poor fit]"
Cc1cn(C2OC(COC(=O)c3ccccc3)C(O)C2Cl)c(=O)[nH]c1=O (stereo unspecified),–,active: 50.1 µM
CC1=C(C)CS(=O)N(S(=O)(=O)c2ccc(Cl)cc2)C1 (stereo unspecified),–,active: 2.24 µM
CCOc1cc(/C=N/Nc2nc(-c3cccs3)c(NC(C)=O)s2)ccc1O,–,active: 20 µM
COc1ccc(Nc2ccc(N3C(=O)CC(C)C3=O)cc2[N+](=O)[O-])cc1OC (stereo unspecified),–,"inconclusive: 89.1 µM [inhibitor, single point]"
CCc1ccc(CN2CCC(Oc3ccc(C(=O)NCc4ccccn4)cc3)CC2)o1,–,"inconclusive: 63.1 µM [inhibitor, single point]"
CC(C(=O)Nc1ccc2[nH]c(=O)[nH]c2c1)N1CCN(Cc2ccc3c(c2)OCO3)CC1 (stereo unspecified),inactive: 8.84% [at 12.7 µM],–
CCc1ccccc1NC1=NCC(=O)N1Cc1ccc(OC)cc1,–,active: 44.7 µM
O=C(CC1SC(=Nc2ccccc2)N(Cc2ccccn2)C1=O)Nc1cccc(Cl)c1 (stereo unspecified),–,active: 8.91 µM
Cc1csc(NC(=O)C2=NN(c3ccccc3)C(=O)CC2)n1,–,"inconclusive: 89.1 µM [inhibitor, single point]"
COc1ccc(C)cc1NC(=O)C(c1ccccc1)N1CCN(CC(=O)N2CCCC2)CC1 (stereo unspecified),–,"inconclusive: 50.1 µM [inhibitor, partial curve]"
CCOC(=O)N1CCC(NC(=O)c2ccc3c(c2)N=C(C)c2ccccc2S3)CC1,–,inactive
CC(C)(Oc1ccc(Cl)cc1)C(=O)Nc1nc2ccc(S(C)(=O)=O)cc2s1,–,active: 11.2 µM
COc1ccc(CCC(=O)NNC(=O)c2cccs2)cc1,inactive: 3.02% [at 2.33 µM],–
COC(=O)Cc1ccc(NC(=S)NCCCN2CCOCC2)cc1,–,"inconclusive: 79.4 µM [inhibitor, single point]"
CN1/C(=N\O)c2cccc3cccc1c23,–,active: 31.6 µM

Structure (SMILES),"activity, negative = inhibition",Potency
O=C(CCNC(=O)c1ccc(Br)cc1)NCc1ccccn1,–,inactive
CCN(CC)CCC(c1cc(OC)c(OC)c(OC)c1)c1c(OC)cc(OC)c2ccc(=O)oc12 (stereo unspecified),inactive: 18.7% [at 12.7 µM],–
CCC(=O)C1CCCN(C(=O)c2ccc(OC3CCN(C(=O)CCOC)CC3)cc2)C1 (stereo unspecified),–,inactive
Cc1cc(=O)n(CCc2ccccc2)c(O)c1C#N,–,"inconclusive: 22.4 µM [inhibitor, partial curve, poor fit]"
CCOCCCNC(=O)C(c1ccc(Cl)cc1)N(Cc1cccs1)C(=O)c1ccc(NC(C)=O)cc1 (stereo unspecified),–,inactive
COC(=O)c1sccc1Oc1c(Cl)cccc1[N+](=O)[O-],–,"inconclusive: 89.1 µM [inhibitor, partial curve, poor fit]"
Cc1ccc(NC(=O)CN2C(=O)C3(SCC(=O)N3c3ccc(F)c(F)c3)c3ccccc32)c(C)c1 (stereo unspecified),–,inactive
O=C(N/N=C/c1ccc(Cl)c([N+](=O)[O-])c1)c1ccc2nc[nH]c2c1,–,inactive
CCOc1ccc(CN2C(=O)c3ccccc3C2=O)cc1C(=O)NC1CC(C)(C)NC(C)(C)C1,–,"inconclusive: 3.55 µM [inhibitor, single point]"
COc1ccc(C(=O)OCC(=O)N(C)C2CCS(=O)(=O)C2)cc1Br (stereo unspecified),inactive: 4.91% [at 12.7 µM],–
COc1ccc(CN2C(=O)C(Cc3ccccc3)Nc3ncnc(N4CCN(c5ccccc5)CC4)c32)cc1 (stereo unspecified),inactive: 17.9% [at 2.33 µM],–
Cc1nc(C)n(CC(C)C(=O)N2CCN(S(=O)(=O)c3ccc(Cl)cc3)CC2)n1 (stereo unspecified),–,"inconclusive: 50.1 µM [inhibitor, single point]"
CN1C(=O)C2(SCC(=O)N2c2ccc(F)cc2)c2ccccc21 (stereo unspecified),–,"inconclusive: 4.47 µM [inhibitor, single point]"
COc1ccc(-n2c(=O)c3c4c(sc3n3c(SCCC(C)C)nnc23)COC(C(C)C)C4)cc1 (stereo unspecified),–,inactive
CCCCOc1ccc(-c2c(C(=O)Nc3ccccc3)c(C)[nH]c(=S)c2C#N)cc1,–,"inconclusive: 39.8 µM [inhibitor, partial curve]"
Cn1c(C(=O)N[C@@H](C(=O)O)c2ccccc2)cc2cc(F)ccc21,–,inactive
CC1CN(CC(=O)N2CCc3[nH]c4ccccc4c3C2)CC(C)O1 (stereo unspecified),–,"inconclusive: 35.5 µM [inhibitor, single point]"
Cn1cnc([N+](=O)[O-])c1Sc1n[nH]c(N)n1,–,inactive
O=C(C1CCN(S(=O)(=O)c2cccc3cccnc23)CC1)N1CCN(c2ccc(Cl)cc2)CC1,–,"inconclusive: 89.1 µM [inhibitor, single point]"
COc1ccc(NC(=O)C(CC(C)C)NC(=O)C2CCC(C)CC2)c(OC)c1 (stereo unspecified),–,"inconclusive: 0.794 µM [inhibitor, full curve, poor fit]"
COc1ccc(N2CCN(C(=O)c3cc(S(=O)(=O)N4CCC(C)CC4)cn3C)CC2)cc1,–,"inconclusive: 35.5 µM [inhibitor, single point]"
O=C(NNC(=S)Nc1cccc2ccccc12)c1cccc(Br)c1,–,"inconclusive: 17.8 µM [inhibitor, single point]"
CC1(C)CC(CCNC(=O)CCl)(c2ccccc2)CCO1 (stereo unspecified),inactive: 19% [at 12.7 µM],–
